According to PubChem BioAssay (Tox21):
Values joined by “and” are separate entries in the source; they are usually repeats but may differ in a detail not shown here. Identical values can stand only once. Inconclusive results, whose numbers are uncertain, are shown with a selection of clear calls. Potencies beside an inconclusive call are fits to weak or partial responses and may not hold up. Active and inactive are the calls of the source. The call rests on the fitted dose curve; in most records, active means well fitted curve in the direction sought with a large enough effect in the repeat runs; inconclusive means weak or mixed curves; inactive means no such curve, though single readings can be large; an effect the other way counts as inactive or inconclusive.

Columns and labels:
[1] = Caspase-3/7 induction in CHO-K1 cells by small molecules, qHTS cell viability counter screen (AID 1346979); further: nearly all actives have a fitted effect of over 35% in size
Procedure, shortened: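 Multiplexed with Caspase-Glo 3/7 in CHO-K1 cells, this counter screen added CellTiter-Fluor after 16hr of compound exposure and recorded fluorescence 1hr later.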

[2] = molecular target: Cytochrome P450 2C19 (Homo sapiens) (UniProt P33261); assay: Cytochrome P450 Family 2 Subfamily C Member 19 (CYP2C19) small molecule antagonists: luciferase reporter qHTS assay (AID 1671197); further: nearly all actives have a fitted effect of over 65% in size
Procedure, shortened: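 Compounds were tested on CYP2C19 activity via proluciferin conversion to luciferin. The 37C, 1 h reaction followed NADPH addition; detection reagent stopped it.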

[3] = molecular target: Cytochrome P450 2C9 (Homo sapiens) (UniProt P11712); assay: Cytochrome P450 Family 2 Subfamily C Member 9 (CYP2C9) small molecule antagonists: luciferase reporter qHTS assay (AID 1671198); further: nearly all actives have a fitted effect of over 50% in size
Procedure, shortened: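 Enzyme-substrate mix preincubated with compound 10 min at room temperature; reaction started with NADPH regeneration solution, 1 h 37C. Luminescent luciferin product read after 20 min detection reagent.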

[4] = molecular target: Voltage-gated inwardly rectifying potassium channel KCNH2 (Homo sapiens) (UniProt Q12809); assay: Human Ether-a-go-go-Related Gene (hERG) channel small molecule antagonists: fluorescence cell-based qHTS assay (AID 1671200); further: nearly all actives have a fitted effect of over 50% in size
Procedure, shortened: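 Cell line hERG-U2OS; dye FluxOR II, 1 h RT dark; Tl+ stimulus; ex 480/em 540 nm, read each second for 2 min.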

[5] = molecular target: Cytochrome P450 1A2 (Homo sapiens) (UniProt P05177); assay: Cytochrome P450 Family 1 Subfamily A Member 2 (CYP1A2) small molecule antagonists: luciferase reporter qHTS assay (AID 1671199); further: nearly all actives have a fitted effect of over 50% in size
Procedure, shortened: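 Room-temperature CYP1A2 reaction with proluciferin substrate: compounds added from DMSO, 10 min preincubation, NADPH regeneration for 1 h. Luciferin detection reagent then added; luminescence recorded as RLU.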

[6] = molecular target: Cytochrome P450 3A4 (Homo sapiens) (UniProt P08684); assay: Cytochrome P450 Family 3 Subfamily A Member 4 (CYP3A4) small molecule antagonists: luciferase reporter qHTS assay (AID 1671201); further: nearly all actives have a fitted effect of over 50% in size
Procedure, shortened: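 Room-temperature assay throughout: 10 min compound–enzyme/substrate preincubation, 1 h reaction after NADPH regeneration solution, 20 min detection. Luciferin formed from proluciferin substrate is quantified by luminescence.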
Potency means the concentration at half of the fitted maximal effect; tags describe the fitted curve by direction and shape.

Sequence of UniProt P33261 (P33261 whole entry, looked up): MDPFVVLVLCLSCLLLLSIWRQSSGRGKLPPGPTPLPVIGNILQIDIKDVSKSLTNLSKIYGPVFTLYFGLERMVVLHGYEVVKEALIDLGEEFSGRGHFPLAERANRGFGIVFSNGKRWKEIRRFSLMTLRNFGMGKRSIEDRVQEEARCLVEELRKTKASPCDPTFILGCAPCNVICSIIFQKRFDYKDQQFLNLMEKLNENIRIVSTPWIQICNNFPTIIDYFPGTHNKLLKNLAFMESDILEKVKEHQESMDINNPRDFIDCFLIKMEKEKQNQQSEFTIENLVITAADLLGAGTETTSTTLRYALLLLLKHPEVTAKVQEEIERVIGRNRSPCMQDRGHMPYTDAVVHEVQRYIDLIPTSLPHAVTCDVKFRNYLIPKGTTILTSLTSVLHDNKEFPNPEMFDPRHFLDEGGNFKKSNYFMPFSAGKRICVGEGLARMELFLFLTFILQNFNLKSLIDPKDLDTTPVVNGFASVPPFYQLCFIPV
Sequence of UniProt P11712 (P11712 whole entry, looked up): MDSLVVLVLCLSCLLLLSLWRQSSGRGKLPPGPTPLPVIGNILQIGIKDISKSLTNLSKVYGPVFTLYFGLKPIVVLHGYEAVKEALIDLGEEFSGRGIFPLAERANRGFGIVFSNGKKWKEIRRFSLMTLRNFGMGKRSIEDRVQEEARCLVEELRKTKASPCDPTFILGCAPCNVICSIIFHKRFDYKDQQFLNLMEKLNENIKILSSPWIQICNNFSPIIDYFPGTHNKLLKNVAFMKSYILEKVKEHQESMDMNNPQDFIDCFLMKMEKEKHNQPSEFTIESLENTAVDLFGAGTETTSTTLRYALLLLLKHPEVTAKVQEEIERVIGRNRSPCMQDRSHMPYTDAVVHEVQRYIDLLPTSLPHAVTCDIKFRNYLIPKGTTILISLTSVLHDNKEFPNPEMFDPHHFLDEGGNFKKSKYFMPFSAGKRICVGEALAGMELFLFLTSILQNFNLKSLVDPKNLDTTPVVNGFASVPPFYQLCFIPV
Sequence of UniProt P05177 (P05177 whole entry, looked up): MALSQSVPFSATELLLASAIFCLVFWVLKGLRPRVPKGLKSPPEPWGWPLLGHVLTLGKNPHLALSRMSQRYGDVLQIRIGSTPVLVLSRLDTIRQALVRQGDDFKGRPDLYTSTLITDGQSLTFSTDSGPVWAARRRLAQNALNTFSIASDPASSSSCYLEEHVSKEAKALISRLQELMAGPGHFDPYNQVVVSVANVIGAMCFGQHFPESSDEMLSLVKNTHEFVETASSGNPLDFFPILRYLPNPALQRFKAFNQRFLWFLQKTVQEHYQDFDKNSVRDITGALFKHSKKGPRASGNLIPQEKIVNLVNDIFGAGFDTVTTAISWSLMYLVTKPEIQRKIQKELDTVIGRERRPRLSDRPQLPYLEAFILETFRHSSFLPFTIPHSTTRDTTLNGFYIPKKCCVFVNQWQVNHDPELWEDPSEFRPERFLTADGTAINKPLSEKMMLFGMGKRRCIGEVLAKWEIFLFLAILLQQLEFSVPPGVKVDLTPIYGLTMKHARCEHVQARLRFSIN
Sequence of UniProt Q12809 (Q12809 whole entry, looked up): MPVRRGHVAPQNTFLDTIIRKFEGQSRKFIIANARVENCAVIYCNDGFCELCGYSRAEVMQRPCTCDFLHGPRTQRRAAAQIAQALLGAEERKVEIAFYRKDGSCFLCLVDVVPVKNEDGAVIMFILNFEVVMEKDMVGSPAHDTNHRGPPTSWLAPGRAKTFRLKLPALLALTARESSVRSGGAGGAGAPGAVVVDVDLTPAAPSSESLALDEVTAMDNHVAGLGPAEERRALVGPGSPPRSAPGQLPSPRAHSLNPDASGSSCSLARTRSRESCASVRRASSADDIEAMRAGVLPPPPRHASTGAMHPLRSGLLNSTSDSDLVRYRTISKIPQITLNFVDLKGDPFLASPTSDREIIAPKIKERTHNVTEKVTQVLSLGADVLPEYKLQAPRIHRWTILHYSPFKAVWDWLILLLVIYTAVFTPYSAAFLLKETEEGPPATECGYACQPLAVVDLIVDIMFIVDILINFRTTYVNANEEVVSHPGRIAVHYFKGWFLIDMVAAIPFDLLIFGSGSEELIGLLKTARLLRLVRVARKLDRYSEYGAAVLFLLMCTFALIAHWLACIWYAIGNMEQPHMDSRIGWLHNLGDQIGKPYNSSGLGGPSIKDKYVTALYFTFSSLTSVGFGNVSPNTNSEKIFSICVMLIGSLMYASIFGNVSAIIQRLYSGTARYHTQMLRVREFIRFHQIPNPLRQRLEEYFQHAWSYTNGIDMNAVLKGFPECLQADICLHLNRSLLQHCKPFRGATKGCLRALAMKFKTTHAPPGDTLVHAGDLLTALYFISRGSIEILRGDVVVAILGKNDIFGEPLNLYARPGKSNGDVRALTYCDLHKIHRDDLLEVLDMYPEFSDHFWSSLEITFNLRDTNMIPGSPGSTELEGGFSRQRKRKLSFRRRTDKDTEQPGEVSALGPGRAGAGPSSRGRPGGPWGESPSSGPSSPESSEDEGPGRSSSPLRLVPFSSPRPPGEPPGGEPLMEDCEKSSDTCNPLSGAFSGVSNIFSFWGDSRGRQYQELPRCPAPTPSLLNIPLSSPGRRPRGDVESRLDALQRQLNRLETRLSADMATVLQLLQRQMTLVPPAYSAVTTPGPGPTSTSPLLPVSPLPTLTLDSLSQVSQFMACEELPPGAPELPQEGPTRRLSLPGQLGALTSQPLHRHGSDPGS
Sequence of UniProt P08684 (P08684 whole entry, looked up): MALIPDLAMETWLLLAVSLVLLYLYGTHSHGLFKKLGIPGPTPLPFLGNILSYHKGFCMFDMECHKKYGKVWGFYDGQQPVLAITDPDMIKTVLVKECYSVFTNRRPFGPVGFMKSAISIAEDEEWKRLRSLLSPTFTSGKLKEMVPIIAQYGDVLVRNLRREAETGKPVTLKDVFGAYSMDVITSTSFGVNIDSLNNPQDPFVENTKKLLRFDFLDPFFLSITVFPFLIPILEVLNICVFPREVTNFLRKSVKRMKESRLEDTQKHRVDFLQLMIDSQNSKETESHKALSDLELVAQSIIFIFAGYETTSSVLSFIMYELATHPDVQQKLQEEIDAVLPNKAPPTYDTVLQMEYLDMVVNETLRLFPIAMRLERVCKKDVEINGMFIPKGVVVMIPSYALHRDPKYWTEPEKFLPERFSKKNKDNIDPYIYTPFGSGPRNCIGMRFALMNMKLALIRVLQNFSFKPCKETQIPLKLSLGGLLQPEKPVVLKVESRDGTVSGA

Structure (SMILES): Nc1ccc2c(S(=O)(=O)O)cccc2c1S(=O)(=O)O
- Potency [1]: inconclusive: 26.6 µM [rising, partial curve]
- Potency [2]: inactive
- Potency [3]: inconclusive: 15.5 µM [inhibitor, partial curve, poor fit]
- Potency [4]: inactive

Structure (SMILES): CCCCC1CCCCC(=O)O1 (centres undefined)
- Potency [1]: inactive
- Potency [2]: inconclusive: 79.6 µM [inhibitor, single point]
- Potency [5]: inconclusive: 39.9 µM [inhibitor, partial curve]

Structure (SMILES): CCCC(C)=O
- Potency [1]: inconclusive: 44 µM [rising, partial curve]
- Potency [2]: inactive
- Potency [3]: inconclusive: 90.8 µM [inhibitor, partial curve, poor fit]

Structure (SMILES): CC(C)O
- Potency [1]: inactive
- Potency [3]: inactive
- Potency [5]: inconclusive: 1.91 µM [inhibitor, single point]

Structure (SMILES): CN(C)CCCNCCCN
- Potency [1]: inactive
- Potency [5]: active: 35.4 µM

Structure (SMILES): CCCCCC/C=C/C=O
- Potency [1]: inactive
- Potency [5]: inactive

Structure (SMILES): NS(=O)(=O)c1cc2c(cc1Cl)NCNS2(=O)=O
- Potency [1]: inactive
- Potency [3]: inactive

Structure (SMILES): CCN1CCCC1CNC(=O)c1cc(S(N)(=O)=O)ccc1OC (centres undefined)
- Potency [1]: inconclusive: 77 µM [cytotoxic, single point]
- Potency [3]: inconclusive: 35.6 µM [inhibitor, full curve]
- Potency [5]: inconclusive: 44.8 µM [inhibitor, partial curve]
- Potency [4]: inconclusive: 54.9 µM [inhibitor, single point]

Structure (SMILES): Oc1ccc2c(c1)CCC2
- Potency [1]: inactive
- Potency [5]: inconclusive: 71 µM [inhibitor, partial curve]

Structure (SMILES): CCCCCCC=O
- Potency [1]: inconclusive: 27.9 µM [rising, partial curve, poor fit]
- Potency [3]: inconclusive: 64.7 µM [inhibitor, partial curve] and inconclusive: 63.3 µM [inhibitor, partial curve]
- Potency [5]: inactive
- Potency [6]: inconclusive: 89.4 µM [inhibitor, partial curve, poor fit]
